The values below come from the supplement of paper PMC6089552.

The campaign covered roughly 3,200 compounds. About 300 (9.4%) showed activity. This is a selection; strong and weak results do not stand in their true shares.

The subject of this assay is A673/TR/shEF. The assay is described as follows: cell viability (LOESS-normalised, relative to median of negative controls) (log2 ratio); higher = more viable cells (less compound effect), active = hit call of the paper (over 3 MAD below the median). The settings on record: treatment time: 72 h. In a few lines: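 A673/TR/shEF Ewing sarcoma cells were plated at 1,500 per well in 384-well plates and cultured with or without doxycycline, added 24 h before compounds, to induce EWS-FLI1 shRNA knockdown. Library compounds at two or more concentrations, alongside DMSO controls, were applied for three days. Cell viability was measured by CellTiter-Glo luminescence on an Envision reader. Readings were LOESS-corrected per plate, divided by the median of negative controls and log2-transformed, and hits were wells lying at least three median absolute deviations from the median of all screened wells.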

Where [1] appears, read: 0.25 µM, library screen: screen1, EWS-FLI1 expression: high (no doxycycline).
[2] abbreviates: 0.25 µM, library screen: screen1, EWS-FLI1 expression: low (doxycycline-induced shRNA knockdown).
Setting [3] is: 2.5 µM, library screen: screen1, EWS-FLI1 expression: high (no doxycycline).
Setting [4] is: 2.5 µM, library screen: screen1, EWS-FLI1 expression: low (doxycycline-induced shRNA knockdown).
Where [5] appears, read: 0.25 µM, library screen: screen2, EWS-FLI1 expression: high (no doxycycline).
Setting [6] is: 0.25 µM, library screen: screen2, EWS-FLI1 expression: low (doxycycline-induced shRNA knockdown).
[7] abbreviates: 2.5 µM, library screen: screen2, EWS-FLI1 expression: high (no doxycycline).
Where [8] appears, read: 2.5 µM, library screen: screen2, EWS-FLI1 expression: low (doxycycline-induced shRNA knockdown).
The mark [9] stands for this setting: 0.103 µM, library screen: screen3, EWS-FLI1 expression: high (no doxycycline).
Setting [10] is: 0.103 µM, library screen: screen3, EWS-FLI1 expression: low (doxycycline-induced shRNA knockdown).
Setting [11] is: 0.308 µM, library screen: screen3, EWS-FLI1 expression: high (no doxycycline).
The mark [12] stands for this setting: 0.308 µM, library screen: screen3, EWS-FLI1 expression: low (doxycycline-induced shRNA knockdown).
Where [13] appears, read: 0.926 µM, library screen: screen3, EWS-FLI1 expression: high (no doxycycline).
Setting [14] is: 0.926 µM, library screen: screen3, EWS-FLI1 expression: low (doxycycline-induced shRNA knockdown).
[15] abbreviates: 2.8 µM, library screen: screen3, EWS-FLI1 expression: high (no doxycycline).
Where [16] appears, read: 2.8 µM, library screen: screen3, EWS-FLI1 expression: low (doxycycline-induced shRNA knockdown).
[17] abbreviates: 8.3 µM, library screen: screen3, EWS-FLI1 expression: high (no doxycycline).
[18] abbreviates: 8.3 µM, library screen: screen3, EWS-FLI1 expression: low (doxycycline-induced shRNA knockdown).
Where [19] appears, read: 25 µM, library screen: screen3, EWS-FLI1 expression: high (no doxycycline).
Where [20] appears, read: 25 µM, library screen: screen3, EWS-FLI1 expression: low (doxycycline-induced shRNA knockdown).

As for `CC(Cc1cccc(C(F)(F)F)c1)NCCOC(=O)c1ccccc1` (stereo unspecified), the “cell viability (log2)” value reads like this: under setting [1], inactive: 0.109; under setting [2], inactive: 0.0265; under setting [3], inactive: 0.176; under setting [4], inactive: -0.0188.

Consider `COc1ccc2c(=O)c(OC)c(-c3ccccc3)oc2c1`, for which the “cell viability (log2)” value under setting [1] was inactive: 0.146, the “cell viability (log2)” value under setting [2] is inactive: -0.0135, the “cell viability (log2)” value under setting [3] was inactive: 0.142 and the “cell viability (log2)” value under setting [4] is inactive: -0.0254.

Regarding `NCC(O)C1CCCCCCC1` (stereo unspecified), the “cell viability (log2)” value is, setting by setting: under setting [5], inactive: 0.139; under setting [6], inactive: 0.0677; under setting [7], inactive: 0.0584; under setting [8], inactive: 0.14.

Consider `CN1CCC(=C2c3ccccc3C=Cc3ccccc32)CC1`, for which the “cell viability (log2)” value under setting [5] is inactive: 0.203, the “cell viability (log2)” value under setting [6] was inactive: 0.115, the “cell viability (log2)” value under setting [7] is inactive: 0.0726 and the “cell viability (log2)” value under setting [8] was inactive: -0.0154.

With `CCCNC[C@H](O)COc1ccccc1C(=O)CCc1ccccc1`, the “cell viability (log2)” value runs as follows: under setting [5], inactive: 0.255; under setting [6], inactive: 0.136; under setting [7], inactive: 0.217; under setting [8], inactive: 0.0281.

Consider `C(#CC12CC3CC(CC(C3)C1)C2)CN1CCOCC1`, for which the “cell viability (log2)” value is inactive: 0.0887 under setting [1], inactive: 0.0273 under setting [2], inactive: 0.163 under setting [3] and inactive: 0.0455 under setting [4].

Regarding `CCn1c(=O)c2[nH]c(-c3ccccc3)nc2n(CC)c1=O`, the “cell viability (log2)” value is, setting by setting: under setting [5], inactive: 0.325; under setting [6], inactive: 0.0702; under setting [7], inactive: 0.169; under setting [8], inactive: 0.0945.

Take `N#Cc1c(-c2ccccc2)no[n+]1[O-]`: the “cell viability (log2)” value runs as follows: under setting [5], inactive: 0.0776; under setting [6], inactive: 0.12; under setting [7], inactive: 0.0573; under setting [8], inactive: 0.147.

Consider `C[C@H]1O[C@H](O[C@H]2[C@H](O)[C@@H](O)[C@@H](O[C@H]3[C@H](O)[C@@H](O)C(O)O[C@@H]3CO)O[C@@H]2CO)[C@H](O)[C@@H](O)[C@@H]1N[C@H]1C=C(CO)[C@@H](O)[C@H](O)[C@H]1O` (stereo partly specified), for which the “cell viability (log2)” value reads like this: under setting [9], inactive: 0.0722; under setting [10], inactive: 0.0864; under setting [11], inactive: 0.0913; under setting [12], inactive: 0.114; under setting [13], inactive: 0.112; under setting [14], inactive: 0.0769. In addition, the “cell viability (log2)” value reads like this: under setting [15], inactive: 0.0866; under setting [16], inactive: 0.0489; under setting [17], inactive: 0.0887; under setting [18], inactive: 0.0595; under setting [19], inactive: 0.12; under setting [20], inactive: 0.0697.

In the case of `CC(C)(C=O)Cc1cc(C(C)(C)C)c(O)c(C(C)(C)C)c1`, the “cell viability (log2)” value was inactive: 0.149 under setting [5], inactive: 0.153 under setting [6], inactive: 0.105 under setting [7] and inactive: 0.142 under setting [8].

`CN1CCN(CC/C=C2/c3ccccc3Sc3ccc(S(=O)(=O)N(C)C)cc32)CC1`: the “cell viability (log2)” value reads like this: under setting [1], inactive: 0.106; under setting [2], inactive: 0.00591; under setting [5], inactive: 0.173; under setting [6], inactive: 0.165; under setting [3], inactive: 0.0792; under setting [4], inactive: 0.15. In addition, the “cell viability (log2)” value under setting [7] is inactive: 0.161 and the “cell viability (log2)” value under setting [8] was inactive: -0.0129.

Regarding `NC(N)=NS(=O)(=O)c1ccc(N)cc1`, the “cell viability (log2)” value is inactive: 0.0966 under setting [1], inactive: 0.0507 under setting [2], inactive: 0.189 under setting [3] and inactive: 0.133 under setting [4].

As to `COc1c(-c2coc3cc4c(cc3c2=O)CC(O)C(C)(C)O4)ccc2c1C=CC(C)(C)O2` (stereo unspecified), the “cell viability (log2)” value runs as follows: under setting [1], inactive: 0.0473; under setting [2], inactive: 0.0244; under setting [3], inactive: 3e-05; under setting [4], inactive: 0.094.

In the case of `OCCN1CCN(CC/C=C2/c3ccccc3Sc3ccc(C(F)(F)F)cc32)CC1`, the “cell viability (log2)” value is inactive: 0.14 under setting [5], inactive: 0.0648 under setting [6], inactive: 0.179 under setting [7] and inactive: 0.072 under setting [8].

Regarding `OC[C@H]1O[C@@H](n2cnc3c(NCCc4ccccc4)ncnc32)C(O)[C@H]1O` (stereo partly specified), the “cell viability (log2)” value is inactive: 0.15 under setting [5], inactive: 0.163 under setting [6], inactive: 0.0914 under setting [7] and inactive: 0.0608 under setting [8].

With `N#Cc1c(-c2ccc(Br)cc2)cc(-c2ccc3c(c2)OCO3)c(C#N)c1N`, the “cell viability (log2)” value is inactive: 0.0622 under setting [1], inactive: 0.109 under setting [2], inactive: 0.154 under setting [3] and inactive: 0.0524 under setting [4].

On to `Cc1cn[nH]c1`, for which the “cell viability (log2)” value runs as follows: under setting [5], inactive: 0.0608; under setting [6], inactive: 0.0728; under setting [7], inactive: 0.0815; under setting [8], inactive: 0.0769.

As to `CC12CCC3c4ccc(OC(=O)c5ccccc5)cc4CCC3C1CCC2=O` (stereo unspecified), the “cell viability (log2)” value is inactive: -0.000312 under setting [1], inactive: 0.0356 under setting [2], inactive: 0.0819 under setting [3] and inactive: 0.000425 under setting [4].

Consider `OC(Cn1cncn1)(Cn1cncn1)c1ccc(F)cc1F`, for which the “cell viability (log2)” value reads like this: under setting [9], inactive: 0.0788; under setting [10], inactive: 0.0993; under setting [1], inactive: 0.166; under setting [2], inactive: 0.00845; under setting [11], inactive: 0.2; under setting [12], inactive: 0.0904. The “cell viability (log2)” value runs as follows: under setting [13], inactive: 0.146; under setting [14], inactive: 0.0591; under setting [3], inactive: 0.096; under setting [4], inactive: -0.00416; under setting [15], inactive: 0.155; under setting [16], inactive: 0.0396. Also, the “cell viability (log2)” value was inactive: 0.104 under setting [17], inactive: 0.0872 under setting [18], inactive: 0.181 under setting [19] and inactive: 0.111 under setting [20].

As for `C[C@@H](NCCCc1cccc(C(F)(F)F)c1)c1cccc2ccccc12`, the “cell viability (log2)” value was inactive: 0.085 under setting [9]; inactive: 0.0699 under setting [10]; inactive: 0.0937 under setting [11]; inactive: 0.0681 under setting [12]; inactive: 0.0751 under setting [13]; inactive: 0.0865 under setting [14]. Further, the “cell viability (log2)” value is inactive: 0.0584 under setting [15]; inactive: 0.0742 under setting [16]; inactive: 0.0429 under setting [17]; inactive: 0.0305 under setting [18]; inactive: -0.0605 under setting [19]; inactive: 0.00123 under setting [20].

For `CC(=O)[C@@]1(O)CC[C@H]2[C@@H]3C=C(Cl)C4=CC(=O)[C@@H]5C[C@@H]5[C@]4(C)[C@H]3CC[C@@]21C`, the “cell viability (log2)” value runs as follows: under setting [1], inactive: 0.125; under setting [2], inactive: 0.0388; under setting [3], inactive: 0.131; under setting [4], inactive: -0.0197.

In the case of `CC[N+](C)(C)c1cccc(O)c1`, the “cell viability (log2)” value was inactive: 0.144 under setting [1]; inactive: 0.0309 under setting [2]; inactive: 0.0704 under setting [5]; inactive: 0.0832 under setting [6]; inactive: 0.0778 under setting [3]; inactive: 0.0123 under setting [4]. Besides, the “cell viability (log2)” value runs as follows: under setting [7], inactive: 0.12; under setting [8], inactive: 0.118.

As to `NS(=O)(=O)c1cc(C2(O)NC(=O)c3ccccc32)ccc1Cl` (stereo unspecified), the “cell viability (log2)” value runs as follows: under setting [1], inactive: 0.102; under setting [2], inactive: 0.0805; under setting [3], inactive: 0.216; under setting [4], inactive: 0.268.

Take `COc1ccc(-c2cc(=O)c3c(O)c(OC)c(OC)cc3o2)cc1O`: the “cell viability (log2)” value under setting [3] is active: -0.654.

In the case of `CCCCCCCCCCCCCCCC(=O)OC/C=C(C)/C=C/C=C(C)/C=C/C1=C(C)CCCC1(C)C`, the “cell viability (log2)” value was inactive: 0.183 under setting [1], inactive: 0.0654 under setting [2], inactive: 0.188 under setting [3] and inactive: 0.0897 under setting [4].

On to `C=CC(N)CCC(=O)O` (stereo unspecified), for which the “cell viability (log2)” value under setting [1] is inactive: 0.0253; the “cell viability (log2)” value under setting [2] was inactive: -0.041; the “cell viability (log2)” value under setting [5] was inactive: 0.0784; the “cell viability (log2)” value under setting [6] is inactive: 0.0772; the “cell viability (log2)” value under setting [3] was inactive: 0.0496; the “cell viability (log2)” value under setting [4] was inactive: 0.0738. For the same molecule, the “cell viability (log2)” value under setting [7] is inactive: 0.141 and the “cell viability (log2)” value under setting [8] was inactive: 0.0589.
